Data: PubChem BioAssay AID1508624 (National Center for Advancing Translational Sciences (NCATS), 2021)
In all, about 48,000 compounds went through this assay and about 120 (0.25%) were called active. Roughly 4% stayed inconclusive and do not appear here. Calls follow the shape of the dose curve; as a rule, active = well fitted activation curve with a large enough effect; inconclusive = small, poorly fitted or top-dose-only effect, or another doubt; inactive = no such curve, though single readings can be large or run the other way. The list shows a part of the results.

Assay: Primary qHTS for Identification of Small Molecule Activators of Huntingtin-Antisense Promoter Activity; also: nearly all actives have a fitted effect of over 55% in size
Conditions: HEK293 HTT-AS promoter firefly luciferase reporter, 24 h; series mostly up to 57.5 µM; activity change, positive = activation: at the top concentration
In short: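 HEK293 luciferase promoter-reporter cells (2,500/well) plated 24 h, then compounds added at up to 57.5 uM final for 24 h at 37 °C. Firefly luminescence by Dual-Glo, normalized to vehicle (0%) and zero RLU (-100%).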
Potency is read from the fitted curve at half-maximal effect.

SMILES	activity change, positive = activation	Potency
O=C(CSc1nccn1-c1ccc(F)cc1)Nc1nc2ccccc2s1	inactive: 14.8%	–
Cc1cccc(Cn2c(-c3ccccc3)nc3ccccc32)c1	inactive: -22.7%	–
Cc1ccc(-c2cnc(C3CC3)o2)cc1S(=O)(=O)Nc1cccc(C)c1C	inactive: 5.48%	–
CC(C)(C)OC(=O)N1CCC(c2c(C(=O)N3CCN(c4ccccn4)CC3)cnn2-c2ccc(F)cc2F)CC1	inactive: -7.34%	–
CCN1CCN(c2csc3ccc(Br)cc3c2=O)CC1	inactive: 25.5%	–
COc1ccc(NC(=O)C2CCCN(S(=O)(=O)c3c(C)[nH]c(=O)[nH]c3=O)C2)cc1OC (stereo not drawn)	inactive: 0.789%	–
CCn1c(=O)c2cc(C(=O)NCc3cc(OC)ccc3OC)sc2c2ccccc21	inactive: -12.4%	–
Cc1ccc(NC(=O)C2CCCN(c3ncnc4c3nc3n4CCCCC3)C2)c(Br)c1 (stereo not drawn)	inactive: 3.85%	–
CC(C)(C)c1ccc(C(=O)NCC(=O)OCc2cc(=O)n3nc(C4CC4)sc3n2)cc1	inactive: -14%	–
COc1ccc(Cl)cc1NCc1nnc2n1CCCCC2	inactive: -5.92%	–
CCCNC(=O)Nc1ccc(Oc2ncnc3cc(OC)c(OC)cc23)cc1Cl	inactive: -10.1%	–
COc1ccc(NC(=O)c2oc3ccccc3c2NC(=O)c2cc(=O)c3cc(Cl)ccc3o2)cc1	inactive: -9.24%	–
COc1ccc(CC(C)NS(=O)(=O)c2ccc3c(c2)CCN3S(C)(=O)=O)cc1OC (stereo not drawn)	inactive: -34%	–
COC(=O)c1c(NC(=O)c2ccc(OC)cc2OC)sc2c1CCCCC2	inactive: -2.81%	–
Cc1cccc(C(=O)Nc2cc3c(cc2C)n(C)c(=O)n3C)c1	inactive: -6.26%	–
CCC(=O)N1CCc2cc(Br)cc(S(=O)(=O)NCCc3cccc(C)c3)c21	inactive: -26.8%	–
O=C(Nc1sc2c(c1C(=O)NCc1ccco1)CCCC2)c1cc(=O)c2cc(Cl)ccc2o1	inactive: -11.5%	–
Cc1nnc(N2CCN(C(=O)NCCC(C)C)CC2)c2nn(-c3ccc(Cl)cc3)c(C)c12	inactive: -1.96%	–
Cc1cc(C)c2nc(C)cc(Nc3cccc(C(=O)O)c3)c2c1	inactive: 4.52%	–
CCOc1cc(C(=O)Nc2cc3c(cc2N2CCCC2)n(C)c(=O)c(=O)n3C)cc(OCC)c1OCC	inactive: -2.37%	–
CC(=O)N1CCC(N(Cc2ccc(C)o2)C(=O)Nc2cccc(C(F)(F)F)c2)CC1	inactive: -16.2%	–
Cc1ccc2c(c1)-c1nc(-c3ccc4c(c3)NC(=O)CO4)cc(-c3ccccc3)c1CO2	inactive: -7.76%	–
NS(=O)(=O)c1cc2c(cc1Cl)CN(C1CCCCC1)C2=O	inactive: 7.71%	–
Cc1ccc(C)c(NC(=O)CN2C(=O)CCc3cc(S(=O)(=O)N4CCCCC4)ccc32)c1	inactive: -11.3%	–

SMILES	activity change, positive = activation	Potency
COc1ccccc1NC(=O)Cn1c(C)cc(C)c(C#N)c1=O	inactive: -1.8%	–
O=C(CCCCn1c(=O)c2ccccc2n(Cc2cccc(F)c2)c1=O)NCCc1ccccc1	inactive: -34.7%	–
O=C(NC1CCN(Cc2ccccc2)CC1)c1ccc(Cn2c(=O)c3ccccc3n(Cc3ccc(Cl)cc3)c2=O)cc1	inactive: -22.7%	–
COc1ccc(NC(=O)Nc2cc(-c3cn4cccnc4n3)ccc2C)cc1	inactive: 1.8%	–
CC(=O)N1CCc2c(sc3c2c(=O)n(-c2ccccc2)c(=O)n3CC(=O)c2ccccc2)C1	inactive: -9.17%	–
CC(=O)N1CCc2cc(S(=O)(=O)NC(Cc3ccccc3)C(=O)NCc3ccccc3)ccc21 (stereo not drawn)	inactive: -12.9%	–
CC(=O)Nc1ccc(NC(=O)c2ccc3c(c2)N(Cc2cccc(Cl)c2)C(=O)c2ccccc2S3=O)cc1 (stereo not drawn)	inactive: -32.5%	–
Cc1ccc(Cn2c(=O)n(Cc3ccccc3)c(=O)c3oc4ccccc4c32)cc1	inactive: -19.5%	–
CC(=O)c1cccc(NC(=O)c2sc(-n3nc(C)c(Cc4ccccc4)c3C)nc2C)c1	inactive: -26.8%	–
CCCCN(C)CC(O)Cn1cc(/C=C/C(=O)c2ccc(Br)cc2)c2ccccc21 (stereo not drawn)	inactive: -34.1%	–
CCCS(=O)(=O)N1CC(=O)N(c2cccc(Cl)c2)C(C)(C(=O)NC2CCCCC2)C1 (stereo not drawn)	inactive: -10.3%	–
Cc1cc(=O)[nH]c2nnc(SCc3ccc(Cl)cc3Cl)n12	inactive: -5.2%	–
Cc1ccc2c(CNC3CCCCC3)c(C(=O)O)n(Cc3ccc(F)cc3)c2c1	inactive: -15%	–
COCCNC(=O)c1ccc2c(c1)N(Cc1cc(C)ccc1C)C(=O)c1ccccc1S2=O (stereo not drawn)	inactive: -22.2%	–
O=C(Cn1c(SCc2ccc(F)cc2)nc2cccnc21)Nc1ccccc1F	inactive: 22.3%	–
COc1cccc2cc(-c3nc(-c4ccccc4F)no3)c(=O)oc12	inactive: 1.72%	–
CC(=O)OCC(=O)[C@@]1(O)[C@H](C)C[C@H]2[C@@H]3C=C(C)C4=Cc5c(cnn5-c5ccccc5)C[C@]4(C)[C@@H]3[C@@H](O)C[C@@]21C	inactive: -21.1%	–
O=C(Nc1ccc(F)c(Cl)c1)c1ccc2c(Cl)c3c(nc2c1)CCCC3	inactive: -7.53%	–
CCOc1ccccc1CNC(=O)c1cc2c(=O)n(Cc3cccnc3)ccc2nc1C	inactive: -14.5%	–
CCOc1ccc2nc(NC(=O)c3nc(SCc4ccccc4F)ncc3Cl)sc2c1	inactive: 16.9%	–
Cc1cc(C)cc(-n2c(SCC(=O)Nc3ccccc3)nc3c(oc4ccccc43)c2=O)c1	inactive: -11.6%	–
Cc1ccc(-n2nc3c(=O)n(C(C)C(=O)NCc4ccc(OC(C)C)cc4)nc(C)c3c2C)cc1 (stereo not drawn)	inactive: -58.3%	–
COc1ccc2c(CNCc3cccs3)c(C(=O)O)n(Cc3ccc(F)cc3)c2c1	inactive: -24.3%	–
CC(=O)c1ccc(NC(=O)CSC2=Nc3ccccc3N=C(c3ccc(F)cc3)C2)cc1	inactive: -37.1%	–

SMILES	activity change, positive = activation	Potency
CC(C)Cn1cc(NC(=O)N2CCN(c3ccc(F)cc3)CC2)c2ccccc2c1=O	inactive: -4.83%	–
COc1cc(OC)cc(-c2nc3nc(C)c(CCC(=O)Nc4cc(C)cc(C)c4)c(C)n3n2)c1	inactive: -11%	–
CCCCn1c(=O)n(CC2CCC(C(=O)NCCCOC)CC2)c(=O)c2sccc21 (stereo not drawn)	inactive: -5.88%	–
O=C(NCc1ccc(Cl)cc1)C1CCN(S(=O)(=O)c2cccc3nonc23)CC1	inactive: -16.9%	–
CCC(Cc1ccccc1)NC(=O)Cn1nc(C)n2c(cc3occc32)c1=O (stereo not drawn)	inactive: -11.6%	–
COc1ccc(-c2noc(CSc3nnc(C)n3-c3ccc(C)cc3)n2)cc1	inactive: -15.1%	–
CC(C)(CO)[C@@H](O)C(=O)NCCC(=O)O	inactive: -14.8%	–
COc1ccc(N2CC(C(=O)Nc3ccccc3-c3nc(-c4ccc(C)cc4)no3)CC2=O)cc1 (stereo not drawn)	inactive: 14.8%	–
CCCSc1nc2c(c(=O)[nH]1)C(c1ccc(O)c(OCC)c1)CC(=O)N2 (stereo not drawn)	inactive: -20.9%	–
Cn1c(=O)c2c(nc(NCc3ccccc3)n2Cc2ccc(Cl)c(Cl)c2)n(C)c1=O	inactive: -42.9%	–
COc1ccc(C(=O)NCCc2nc3ccccc3[nH]2)cc1	inactive: -20.4%	–
CCOc1ccc(C(CC(=O)Nc2ccc(C(=O)OC)cc2)N2Cc3ccccc3C2=O)cc1OC (stereo not drawn)	inactive: -14.1%	–
CC(C)(C)c1ccc(OCc2cc(=O)n3c4c(sc3n2)CCCC4)cc1	inactive: -10.8%	–
Cc1ccccc1CSCc1ccc(C(=O)NCCc2ccccc2)o1	inactive: -10.1%	–
COc1cccc(NC(=O)c2oc3ccc(S(=O)(=O)N4CCC5(CC4)OCCO5)cc3c2C)c1	inactive: -44.6%	–
CCN(CCCCOC(=O)c1ccc(OC)c(OC)c1)C(C)Cc1ccc(OC)cc1 (stereo not drawn)	inactive: -5.93%	–
CN(C)c1ccc(CNS(=O)(=O)c2csc(C(N)=O)c2)cc1	inactive: -38.8%	–
O=C(NCC(c1ccco1)S(=O)(=O)c1cccs1)c1ccc(C(F)(F)F)cc1 (stereo not drawn)	inactive: -13.2%	–
CCn1cc2nc(SCc3ccccc3)n(Cc3ccc(C)cc3)c(=O)c2n1	inactive: 5.15%	–
Cc1cc(C(C)(C)C)cc(C)c1CC1=NCCN1	inactive	–
Cc1ccccc1NC(=O)CSc1nc2ccc(NC(=O)c3ccco3)cc2s1	inactive: -27.1%	–
Clc1ccc(-c2noc3ncnc(N4CCCCC4)c23)cc1	inactive: -26.1%	–
COc1ccc(C)cc1NC(=O)c1cc(S(=O)(=O)NCCC2=CCCCC2)ccc1F	inactive: -25.7%	–
O=C(CSCc1ccc(F)cc1)N1CCc2c([nH]c3ccccc23)C1c1ccccc1 (stereo not drawn)	inactive: -30.1%	–

SMILES	activity change, positive = activation	Potency
CCCOc1ccc(Cn2c(=O)sc3ccccc32)cc1	inactive: -10.8%	–
Cc1cccc(N2CCN(C(=O)c3ccc4c(c3)N(Cc3cccc(Cl)c3)C(=O)c3ccccc3S4=O)CC2)c1C (stereo not drawn)	inactive: -21.9%	–
O=C(CC(=O)Nc1ccccc1F)Nc1ccc2nc3n(c(=O)c2c1)CCCCC3	inactive: -26.1%	–
Cc1ccc(-c2nc(SCC(=O)Nc3cc(C)on3)c3c(=O)n(C)c(=O)n(C)c3n2)cc1	inactive: -2.41%	–
COc1ccccc1NC(=O)c1c(NC(=O)c2cccs2)sc2c1CCC(C(C)(C)C)C2 (stereo not drawn)	inactive: 7.89% [at 11.5 µM, percent change from vehicle, -100% = no light]	–
CCCCCNc1nc2c(-c3ccccc3)nnn2c2ccccc12	inactive: -9.13%	–
CCc1ccc(OC(=O)c2sc3ncn(Cc4cccc(F)c4)c(=O)c3c2C)cc1	inactive: -11.3% [at 11.5 µM, percent change from vehicle, -100% = no light]	–
O=P(O)(O)C(O)(Cn1ccnc1)P(=O)(O)O	inactive: -4.06% [at 25.1 µM, percent change from vehicle, -100% = no light]	–
Cc1ccc(CCNC(=O)C2CCCN(S(=O)(=O)c3ccc4c(c3)oc(=O)n4C)C2)cc1 (stereo not drawn)	inactive: -4.44%	–
CCc1ccc(C(=O)c2cn(Cc3ccccc3)c3cc(OC)c(OC)cc3c2=O)cc1	inactive: -22%	–
CCc1ccc(-n2nc(C)c3c(C)cc(=O)n(CC(=O)N(CC)Cc4ccccc4)c32)cc1	inactive: 16.3%	–
Oc1c(C(c2ccc(Cl)cc2Cl)N2CCCC2)sc2nc(-c3ccco3)nn12 (stereo not drawn)	inactive: -15.1%	–
CCOc1ccc(CCNC(=O)CCSCc2cccc(Cl)c2)cc1OCC	inactive: -8.92%	–
COc1ccccc1NC(=O)CSc1nc(-c2cccc(Cl)c2)nc2c1Cc1c(CO)cnc(C)c1O2	inactive: -13.3%	–
CCc1ccccc1NC(=O)COC(=O)c1cn(CC)c2nc(C)ccc2c1=O	inactive: -9.65%	–
CCCCOC(=O)c1ccc(Nc2nc3ccc(C)cc3n3cnnc23)cc1	inactive: -10.9%	–
CN(C)c1ccc(NC(=O)C2(c3cccs3)CCOCC2)cc1	inactive: -1.82%	–
O=C(Nc1cc(Cl)ccc1O)c1cc2nc(-c3ccc4c(c3)OCO4)cc(C(F)(F)F)n2n1	inactive: -11.7%	–
CCOc1ccc(-n2c(SCC(=O)N3CCCc4ccccc43)nc3c([nH]c4ccccc43)c2=O)cc1	inactive: -13%	–
CN(c1ccc(Cl)cc1)S(=O)(=O)c1nnc(NC(=O)c2ccco2)s1	inactive: -21.7%	–
CCOC(=O)c1[nH]c(C)c(C(=O)NCCc2ccccc2)c1C	–	active: 7.94 µM
